# The antibiotic and cytotoxicity screens of Wong et al. (2023)
# The other results are listed elsewhere or left out.
# System: HSkMC (human skeletal muscle cells)
# Experiment: cytotoxicity call (relative viability < 0.9)
# Conditions: 10 µM
row,SMILES,cytotoxicity call
1,CC(=O)n1nc(-c2cccnc2)nc1N,inactive
2,C[C@H](CO)N1C[C@H](C)[C@@H](CN(C)CC2CC2)OCCCC[C@H](C)Oc2ccc(NC(=O)Nc3cccc4ccccc34)cc2C1=O,inactive
3,COc1ccc(NC(=O)Nc2ccc3c(c2)C(=O)N([C@H](C)CO)C[C@@H](C)[C@@H](CN(C)Cc2ccccc2)OCCCC[C@H](C)O3)cc1,inactive
4,C[C@@H]1CN([C@H](C)CO)C(=O)c2cccc(NC(=O)Nc3ccc(F)cc3)c2O[C@H]1CN(C)Cc1ccc(C(F)(F)F)cc1,inactive
5,C[C@H](CO)N1C[C@H](C)[C@H](CN(C)Cc2ccc3c(c2)OCO3)Oc2ccc(NC(=O)C3CC3)cc2CC1=O,inactive
6,O=C(C[C@@H]1C=C[C@@H](NS(=O)(=O)c2ccccc2)[C@H](CO)O1)NCc1ccncn1,inactive
7,COc1ccc(CN(C)C[C@H]2Oc3c(NC(=O)Nc4ccc(C(F)(F)F)cc4)cccc3C(=O)N([C@H](C)CO)C[C@@H]2C)cc1,active
8,C[C@@H]1CCCCO[C@@H](CN(C)Cc2ccc3c(c2)OCO3)[C@@H](C)CN([C@@H](C)CO)C(=O)c2cc(NC(=O)Nc3ccc(F)cc3)ccc2O1,inactive
9,Cc1noc(C)c1NC(=O)N[C@H]1C=C[C@@H](CC(=O)N2CCN(C)CC2)O[C@@H]1CO,inactive
10,CC[C@H]1OC(=O)[C@H](C)[C@@H](O[C@H]2C[C@@](C)(OC)[C@@H](O)[C@H](C)O2)[C@H](C)[C@@H](O[C@@H]2O[C@H](C)C[C@H](N(C)C)[C@H]2O)[C@](C)(OC)C[C@@H](C)C(=O)[C@H](C)[C@@H](O)[C@]1(C)O,inactive
11,O=C(COc1ccc(S(=O)(=O)N2CCOCC2)cc1)N1CCOCC1,inactive
12,CC(C)c1c(O)ccc2c1CCC1C(C)(C)CCCC21C (stereo not drawn),inactive
13,CC(C)c1cn(CC[C@@H]2CC[C@H](N)[C@@H](CO)O2)nn1,inactive
14,Cc1ccc(S(=O)(=O)N(C)C[C@H]2Oc3cc(Br)ccc3S(=O)(=O)N([C@@H](C)CO)C[C@H]2C)cc1,inactive
15,CCS(=O)(=O)Nc1ccc2c(c1)C(=O)N(C)[C@@H]1CC[C@@H](CC(=O)NCCOC)O[C@@H]1CO2,inactive
16,COc1ccc(C=CC(=O)O)cc1OC,inactive
17,Nc1ccc(Cl)nn1,inactive
18,CN(C)CC(=O)N1CC(=O)N2[C@H](CO)[C@H](c3ccc(C#Cc4cccnc4)cc3)[C@@H]2C1,inactive
19,C[C@@H]1CN([C@@H](C)CO)C(=O)Cc2cc(NC(=O)CCCN(C)C)ccc2O[C@H]1CN(C)S(=O)(=O)c1ccc(Cl)cc1,inactive
20,COc1ccc(NC(=O)Nc2ccc3c(c2)C(=O)N([C@H](C)CO)C[C@@H](C)[C@@H](CN(C)C(=O)Nc2ccc(C(F)(F)F)cc2)O3)cc1,inactive
21,O=C([C@@H]1N[C@@H]2c3ccc(-c4ccc(F)cc4)c(=O)n3C[C@@H]2[C@H]1CO)N1CCOCC1,inactive
22,COc1ccc(S(=O)(=O)N(C)C[C@H]2Oc3ccc(NC(=O)CCC(F)(F)F)cc3CC(=O)N([C@@H](C)CO)C[C@H]2C)cc1,inactive
23,C=C/C=C/C[C@@H](C)[C@@H](O)[C@H]1C(=O)N[C@@H](CC)C(=O)N(C)CC(=O)N(C)[C@@H](CC(C)C)C(=O)N[C@@H](C(C)C)C(=O)N(C)[C@@H](CC(C)C)C(=O)N[C@@H](C)C(=O)N[C@H](C)C(=O)N(C)[C@@H](CC(C)C)C(=O)N(C)[C@@H](CC(C)C)C(=O)N(C)[C@@H](C(C)C)C(=O)N1C,inactive
24,C[C@H]1CCCCO[C@H](CN(C)C(=O)Nc2ccc(F)cc2)[C@@H](C)CN([C@@H](C)CO)C(=O)c2cc(NC(=O)C3CCCCC3)ccc2O1,inactive
25,C=CCC[C@H](Cc1ccc(F)cc1)C(=O)OC[C@@H](NC(=O)[C@H](CC=C)CC(=O)N(CCO)Cc1ccccc1)C(C)(C)C,inactive
26,COc1cccc(C#Cc2ccc([C@H]3[C@H](CO)N4C(=O)CN(S(=O)(=O)c5ccccc5C)C[C@@H]34)cc2)c1,inactive
27,CC(C)CNC(=O)C(=O)NCc1ccccn1,inactive
28,C[C@H]1O[C@@H](O[C@H]2CC[C@@]3(C)[C@@H](CC[C@@]4(C)[C@@H]3CC=C3[C@H]5C[C@](C)(C(=O)O)CC[C@]5(C(=O)O[C@H]5O[C@@H](CO)[C@@H](O)[C@@H](O)[C@@H]5O)CC[C@@]34C)[C@@]2(C)CO)[C@@H](O)[C@@H](O[C@H]2O[C@@H](CO)[C@@H](O)[C@@H](O)[C@@H]2O)[C@@H]1O,inactive
29,C[C@@H]1CN([C@H](C)CO)C(=O)CCCn2nncc2CO[C@@H]1CN(C)C(=O)Nc1ccc(N2CCN(C)CC2)cc1,inactive
30,COc1ccc(C#Cc2cnc3c(c2)C(=O)N([C@@H](C)CO)C[C@H](C)[C@H](CN(C)C(=O)CC2CC2)O3)cc1,inactive

# System: S. aureus RN4220
# Experiment: growth inhibition call (relative growth <= 0.2)
# Conditions: 50 µM
row,SMILES,growth inhibition call
1,COc1ccc(S(=O)(=O)N(C)C[C@H]2Oc3ccc(NC(=O)C4CC4)cc3CC(=O)N([C@@H](C)CO)C[C@@H]2C)cc1,inactive
2,C[C@H](CO)N1C[C@H](C)[C@H](CN(C)C(=O)NC2CCCCC2)OCCCC[C@H](C)Oc2ccc(NC(=O)NC3CCCCC3)cc2C1=O,inactive
3,C[C@@H]1CCCCO[C@@H](CN(C)Cc2ccccc2)[C@@H](C)CN([C@H](C)CO)C(=O)c2cc(NC(=O)Nc3cccc4ccccc34)ccc2O1,inactive
4,CN(CC(=O)NC1CCCC1)S(=O)(=O)c1ccc2c(c1)c(=O)n(C)c(=O)n2C,inactive
5,C[C@H](CO)N1C[C@H](C)[C@H](CN(C)Cc2ccc(C(F)(F)F)cc2)OCCCC[C@H](C)Oc2ccc(NC(=O)Cc3ccccc3)cc2C1=O,inactive
6,C[C@@H]1CN([C@H](C)CO)C(=O)CCCn2nncc2CO[C@@H]1CN(C)C(=O)c1ccc(N2CCN(C)CC2)cc1,inactive
7,COc1ccc([Si](C)(C)[C@@H]2[C@@H](CCO)O[C@]3(C(=O)N(Cc4ccccc4)c4ccc(N5CCCCC5=O)cc43)[C@H]2C)cc1,inactive
8,C[C@@H](O)[C@H](N)C(=O)N[C@@H](CCCCN)C(=O)N1CCC[C@H]1C(=O)N[C@@H](CCCNC(=N)N)C(=O)O,inactive
9,CCS(=O)(=O)N1C[C@]2(CN(Cc3cccc(c3)Cl)[C@@H](CO)c3c2c2ccc(cc2n3C)OC)C1,inactive
10,C[C@@H]1CN([C@@H](C)CO)C(=O)c2cc(NC(=O)Cn3cnnn3)ccc2O[C@H]1CN(C)Cc1ccc(C(=O)Nc2ccccc2N)cc1,inactive
11,CC(=O)n1nc(-c2cccnc2)nc1N,inactive
12,C[C@H](CO)N1C[C@H](C)[C@@H](CN(C)CC2CC2)OCCCC[C@H](C)Oc2ccc(NC(=O)Nc3cccc4ccccc34)cc2C1=O,inactive
13,COc1ccc(NC(=O)Nc2ccc3c(c2)C(=O)N([C@H](C)CO)C[C@@H](C)[C@@H](CN(C)Cc2ccccc2)OCCCC[C@H](C)O3)cc1,inactive
14,C[C@@H]1CN([C@H](C)CO)C(=O)c2cccc(NC(=O)Nc3ccc(F)cc3)c2O[C@H]1CN(C)Cc1ccc(C(F)(F)F)cc1,inactive
15,C[C@H](CO)N1C[C@H](C)[C@H](CN(C)Cc2ccc3c(c2)OCO3)Oc2ccc(NC(=O)C3CC3)cc2CC1=O,inactive
16,O=C(C[C@@H]1C=C[C@@H](NS(=O)(=O)c2ccccc2)[C@H](CO)O1)NCc1ccncn1,inactive
17,COc1ccc(CN(C)C[C@H]2Oc3c(NC(=O)Nc4ccc(C(F)(F)F)cc4)cccc3C(=O)N([C@H](C)CO)C[C@@H]2C)cc1,inactive

row,SMILES,growth inhibition call
1,C[C@@H]1CCCCO[C@@H](CN(C)Cc2ccc3c(c2)OCO3)[C@@H](C)CN([C@@H](C)CO)C(=O)c2cc(NC(=O)Nc3ccc(F)cc3)ccc2O1,inactive
2,Cc1noc(C)c1NC(=O)N[C@H]1C=C[C@@H](CC(=O)N2CCN(C)CC2)O[C@@H]1CO,inactive
3,CC[C@H]1OC(=O)[C@H](C)[C@@H](O[C@H]2C[C@@](C)(OC)[C@@H](O)[C@H](C)O2)[C@H](C)[C@@H](O[C@@H]2O[C@H](C)C[C@H](N(C)C)[C@H]2O)[C@](C)(OC)C[C@@H](C)C(=O)[C@H](C)[C@@H](O)[C@]1(C)O,active
4,O=C(COc1ccc(S(=O)(=O)N2CCOCC2)cc1)N1CCOCC1,inactive
5,CC(C)c1c(O)ccc2c1CCC1C(C)(C)CCCC21C (stereo not drawn),inactive
6,CC(C)c1cn(CC[C@@H]2CC[C@H](N)[C@@H](CO)O2)nn1,inactive
7,Cc1ccc(S(=O)(=O)N(C)C[C@H]2Oc3cc(Br)ccc3S(=O)(=O)N([C@@H](C)CO)C[C@H]2C)cc1,inactive
8,CCS(=O)(=O)Nc1ccc2c(c1)C(=O)N(C)[C@@H]1CC[C@@H](CC(=O)NCCOC)O[C@@H]1CO2,inactive
9,COc1ccc(C=CC(=O)O)cc1OC,inactive
10,Nc1ccc(Cl)nn1,inactive
11,CN(C)CC(=O)N1CC(=O)N2[C@H](CO)[C@H](c3ccc(C#Cc4cccnc4)cc3)[C@@H]2C1,inactive
12,C[C@@H]1CN([C@@H](C)CO)C(=O)Cc2cc(NC(=O)CCCN(C)C)ccc2O[C@H]1CN(C)S(=O)(=O)c1ccc(Cl)cc1,inactive
13,COc1ccc(NC(=O)Nc2ccc3c(c2)C(=O)N([C@H](C)CO)C[C@@H](C)[C@@H](CN(C)C(=O)Nc2ccc(C(F)(F)F)cc2)O3)cc1,inactive
14,O=C([C@@H]1N[C@@H]2c3ccc(-c4ccc(F)cc4)c(=O)n3C[C@@H]2[C@H]1CO)N1CCOCC1,inactive
15,COc1ccc(S(=O)(=O)N(C)C[C@H]2Oc3ccc(NC(=O)CCC(F)(F)F)cc3CC(=O)N([C@@H](C)CO)C[C@H]2C)cc1,inactive
16,C=C/C=C/C[C@@H](C)[C@@H](O)[C@H]1C(=O)N[C@@H](CC)C(=O)N(C)CC(=O)N(C)[C@@H](CC(C)C)C(=O)N[C@@H](C(C)C)C(=O)N(C)[C@@H](CC(C)C)C(=O)N[C@@H](C)C(=O)N[C@H](C)C(=O)N(C)[C@@H](CC(C)C)C(=O)N(C)[C@@H](CC(C)C)C(=O)N(C)[C@@H](C(C)C)C(=O)N1C,inactive
